According to publication PMC10201431, “SirA inhibits the essential DnaA:DnaD interaction to block helicase recruitment during Bacillus subtilis sporulation” (Nucleic Acids Research, 2022):
Like-named read-outs stand apart in the source and are kept apart here. Results are given in words; binding and its absence hold for the method and conditions named. Some binding calls cover weakened binding; strength is not graded here. For part of these data: Tags and fused reporters may be left off the sequences shown.

T1: DnaB, full-length wild type, helicase co-loader protein (bacterial two-hybrid fusion) (B. subtilis) (UniProt P07908)
T1 sequence: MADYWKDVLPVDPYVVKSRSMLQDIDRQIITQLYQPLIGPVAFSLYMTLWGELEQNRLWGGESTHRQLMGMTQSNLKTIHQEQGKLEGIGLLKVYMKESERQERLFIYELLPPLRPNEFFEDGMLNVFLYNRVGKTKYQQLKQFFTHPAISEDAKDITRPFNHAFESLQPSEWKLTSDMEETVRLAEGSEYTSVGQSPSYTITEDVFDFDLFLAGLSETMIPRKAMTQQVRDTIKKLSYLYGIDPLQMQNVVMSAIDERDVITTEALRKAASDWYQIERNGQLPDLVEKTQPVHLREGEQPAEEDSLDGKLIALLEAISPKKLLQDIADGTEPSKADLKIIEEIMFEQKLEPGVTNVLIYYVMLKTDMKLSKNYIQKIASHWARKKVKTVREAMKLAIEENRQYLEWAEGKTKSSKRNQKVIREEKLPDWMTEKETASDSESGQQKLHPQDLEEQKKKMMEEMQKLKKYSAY

T2: DnaB, full-length wild type, helicase co-loader protein (bacterial two-hybrid fusion) (B. subtilis), P07908
T2 chain: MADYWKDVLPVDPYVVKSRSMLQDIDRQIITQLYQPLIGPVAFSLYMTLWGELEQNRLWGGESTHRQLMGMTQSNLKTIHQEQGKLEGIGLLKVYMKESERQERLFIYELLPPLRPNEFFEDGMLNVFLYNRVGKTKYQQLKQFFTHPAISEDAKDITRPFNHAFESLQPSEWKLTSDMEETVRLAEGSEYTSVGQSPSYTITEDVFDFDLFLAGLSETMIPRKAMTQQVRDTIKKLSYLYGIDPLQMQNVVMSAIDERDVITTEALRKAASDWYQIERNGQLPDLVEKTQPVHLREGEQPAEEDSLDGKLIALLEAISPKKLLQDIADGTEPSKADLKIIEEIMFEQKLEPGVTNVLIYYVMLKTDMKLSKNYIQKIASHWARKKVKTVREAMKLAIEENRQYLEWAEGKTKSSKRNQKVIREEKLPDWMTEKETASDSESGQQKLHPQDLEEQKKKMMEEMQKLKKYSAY


What was measured:
Assay in all cases: two-hybrid; bacterial two-hybrid, T25 and T18 fragments of B. pertussis adenylate cyclase, full-length proteins, E. coli HM1784 (BTH101 Δrnh::kan), spotted on nutrient agar with X-gal, 30°C, 24-48 h
[1] = molecular target: DnaA, full-length wild type, master initiator protein (bacterial two-hybrid fusion) (B. subtilis) (UniProt P05648)
[2] = molecular target: T1, DnaB, full-length wild type, helicase co-loader protein (bacterial two-hybrid fusion) (B. subtilis)
[3] = molecular target: T1, DnaB, full-length wild type, helicase co-loader protein (bacterial two-hybrid fusion) (B. subtilis); remark: listed apart in the source
[4] = molecular target: T2, DnaB, full-length wild type, helicase …; conditions: remark: other sources report otherwise

| Molecule | binding [1] | binding [2] | binding [3] | further results |
| --- | --- | --- | --- | --- |
| DnaA^W27A, full-length (bacterial two-hybrid fusion) (from UniProt P05648 1-446) | binds | binds | – | – |
| DnaA^T26A, full-length (bacterial two-hybrid fusion) (from UniProt P05648 1-446) | binds | binds | – | – |
| DnaA, full-length wild type, master initiator protein (bacterial two-hybrid fusion) (from UniProt P05648 1-446) | binds | – | – | – |
| DnaD lacking the last eight amino acids (bacterial two-hybrid fusion) (domain or fragment, UniProt P39787 1-224) MKKQQFIDMQEQGTSTIPNLLLTHYKQLGLNETELILLLKIKMHLEKGSYFPTPNQLQEGMSISVEECTNRLRMFIQKGFLFIEECEDQNGIKFEKYSLQPLWGKLYEYIQLAQNQTQERKAEGEQKSLYTIFEEEFARPLSPLECETLAIWQDQDQHDAQLIKHALKEAVLSGKLSFRYIDRILFEWKKNGLKTVEQAKIHSQKFRRVQAKQNEPQKEYKRQV | – | – | no binding | – |
| DnaA, full-length wild type, master initiator protein (bacterial two-hybrid fusion), P05648 1-446 (protein) MENILDLWNQALAQIEKKLSKPSFETWMKSTKAHSLQGDTLTITAPNEFARDWLESRYLHLIADTIYELTGEELSIKFVIPQNQDVEDFMPKPQVKKAVKEDTSDFPQNMLNPKYTFDTFVIGSGNRFAHAASLAVAEAPAKAYNPLFIYGGVGLGKTHLMHAIGHYVIDHNPSAKVVYLSSEKFTNEFINSIRDNKAVDFRNRYRNVDVLLIDDIQFLAGKEQTQEEFFHTFNTLHEESKQIVISSDRPPKEIPTLEDRLRSRFEWGLITDITPPDLETRIAILRKKAKAEGLDIPNEVMLYIANQIDSNIRELEGALIRVVAYSSLINKDINADLAAEALKDIIPSSKPKVITIKEIQRVVGQQFNIKLEDFKAKKRTKSVAFPRQIAMYLSREMTDSSLPKIGEEFGGRDHTTVIHAHEKISKLLADDEQLQQHVKEIKEQLK | – | – | – | binding [4]: binds |
| DnaD, full-length wild type (bacterial two-hybrid fusion), P39787 1-232 (protein) MKKQQFIDMQEQGTSTIPNLLLTHYKQLGLNETELILLLKIKMHLEKGSYFPTPNQLQEGMSISVEECTNRLRMFIQKGFLFIEECEDQNGIKFEKYSLQPLWGKLYEYIQLAQNQTQERKAEGEQKSLYTIFEEEFARPLSPLECETLAIWQDQDQHDAQLIKHALKEAVLSGKLSFRYIDRILFEWKKNGLKTVEQAKIHSQKFRRVQAKQNEPQKEYKRQVPFYNWLEQ | – | – | – | binding [4]: binds |

Second part, led by results:

| binding [1] | binding [2] | binding [3] | Molecule | further results |
| --- | --- | --- | --- | --- |
| binds | binds | – | DnaA^F49A, full-length (bacterial two-hybrid fusion) (from UniProt P05648 1-446) | – |
| – | – | no binding | DnaD^L22A, full-length (bacterial two-hybrid fusion) (protein, UniProt P39787 1-232) MKKQQFIDMQEQGTSTIPNLLATHYKQLGLNETELILLLKIKMHLEKGSYFPTPNQLQEGMSISVEECTNRLRMFIQKGFLFIEECEDQNGIKFEKYSLQPLWGKLYEYIQLAQNQTQERKAEGEQKSLYTIFEEEFARPLSPLECETLAIWQDQDQHDAQLIKHALKEAVLSGKLSFRYIDRILFEWKKNGLKTVEQAKIHSQKFRRVQAKQNEPQKEYKRQVPFYNWLEQ | – |
| – | – | binds | DnaD^F6A, full-length (bacterial two-hybrid fusion) (protein, UniProt P39787 1-232) MKKQQAIDMQEQGTSTIPNLLLTHYKQLGLNETELILLLKIKMHLEKGSYFPTPNQLQEGMSISVEECTNRLRMFIQKGFLFIEECEDQNGIKFEKYSLQPLWGKLYEYIQLAQNQTQERKAEGEQKSLYTIFEEEFARPLSPLECETLAIWQDQDQHDAQLIKHALKEAVLSGKLSFRYIDRILFEWKKNGLKTVEQAKIHSQKFRRVQAKQNEPQKEYKRQVPFYNWLEQ | – |
